Sequences with one replicate were seen in a single cluster, so their values are uncertain.
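Note: ATP exposure 15 min at 22 °C before imaging.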

The data set deals with ATP. Description: switch fluorescence ratio, 500 uM ATP over buffer (Cy3 cluster intensity, sum of 5 cycles each) (fold (ratio)); higher = stronger signal-on switching upon ATP binding; sequences stand for … in TCGTCGGCAGCGTCAGATGTGTATAAGAGACAGTTTTTTTTTTTTTTTTTTTTTTTTT…TC. Conditions: aptamer strand: ATP DNA aptamer (quencher-CACCTGGGGGAGTATTGCGGAGGAAGG + anchor), 100 nM annealed; ATP concentration: 500 uM; one replicate. In short, it runs like this: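 Cy3-labelled switching-strand clusters on a modified Illumina MiSeq flow-cell were annealed to 100 nM quencher-labelled ATP aptamer, imaged in selection buffer, then imaged after 15 min with 500 uM ATP at 22 °C. Five buffer/ATP cycles ran, with NaOH stripping and re-annealing between them. The fluorescence ratio is summed target-cycle over summed buffer-cycle Cy3 intensity per cluster, averaged per switch-domain sequence. Clusters outside 100-1000 RFU were excluded.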
In the case of CATTGACAAG, the switch fluorescence ratio amounted to 1.02.

Regarding TGTATCCCGG, the switch fluorescence ratio was 0.989.

In the case of GTCAGCTACG, the switch fluorescence ratio was 0.989.

Take ACGGACATTG: the switch fluorescence ratio turned out to be 1.05.

For the sequence AAGTCTTAC, the switch fluorescence ratio was 1.23.

For the sequence TAACGTAGAT, the switch fluorescence ratio is 1.06.

As to GGATTACCCG, the switch fluorescence ratio is 1.03.

For the sequence CTAGCGCAT, the switch fluorescence ratio came to 1.79.

GCCGAGAACA: the switch fluorescence ratio came to 0.993.

With TTTTTCGTCC, the switch fluorescence ratio came to 1.03.

On to TAAGAACGGA, for which the switch fluorescence ratio worked out at 1.

For TGAGCAGTCT, the switch fluorescence ratio amounted to 1.06.

As to TGTTGGCAGC, the switch fluorescence ratio was found to be 0.982.

Consider TTTACGTCT, for which the switch fluorescence ratio is 1.04.

As to TGGATCAGGC, the switch fluorescence ratio is 1.01.

Turning to ACACTGAGAG, the switch fluorescence ratio was determined as 1.03.

In the case of CGACACTAAG, the switch fluorescence ratio was 1.01.

Consider CCGATATTGA, for which the switch fluorescence ratio came to 1.09.

Regarding CTAGGGCCCG, the switch fluorescence ratio was found to be 0.966.

For GGCTGATCAT, the switch fluorescence ratio came to 0.968.

Take TTAATCTGCA: the switch fluorescence ratio turned out to be 1.03.

As to TTATGGTAGT, the switch fluorescence ratio turned out to be 0.993.

Turning to CCCTTAGATT, the switch fluorescence ratio stood at 0.973.

As for TTCTACCCGG, the switch fluorescence ratio is 1.07.

As for AGCTGGACAG, the switch fluorescence ratio stood at 1.02.

In the case of GCGGGAGACG, the switch fluorescence ratio is 0.978.

As for CCGCGGTGGG, the switch fluorescence ratio worked out at 1.07.

In the case of CCCGTTGTGT, the switch fluorescence ratio is 1.03.

As to TGGGTCGTAA, the switch fluorescence ratio came out at 1.01.

CCCCCAGCAC: the switch fluorescence ratio came out at 4.93.

Turning to TAAGGTCATT, the switch fluorescence ratio is 1.

In the case of CCTTGAGAAG, the switch fluorescence ratio worked out at 1.01.

For the sequence AAAAACTTTA, the switch fluorescence ratio was 0.996.

Turning to ATGCACGTTA, the switch fluorescence ratio came out at 1.15.

For AATTATTAGC, the switch fluorescence ratio is 1.02.

On to CGACTACGT, for which the switch fluorescence ratio came out at 0.973.

AGCCGAAGAA: the switch fluorescence ratio is 1.01.

TTCCGATAT: the switch fluorescence ratio was determined as 2.98.

For the sequence CAGCCATAGA, the switch fluorescence ratio was 0.976.

In the case of AAAAAGAACT, the switch fluorescence ratio turned out to be 0.96.

GTTGATCTCT: the switch fluorescence ratio came out at 1.02.

Take TTCTTAATCG: the switch fluorescence ratio is 0.972.

For GCGTCAATAT, the switch fluorescence ratio was 4.32.

For TTAGAATTTC, the switch fluorescence ratio came out at 1.1.

For the sequence GAGAAAAACT, the switch fluorescence ratio turned out to be 1.08.

TGTATGGTGT: the switch fluorescence ratio is 0.992.

CGTTTCAGTA: the switch fluorescence ratio was found to be 1.05.

Turning to AAGTTATATC, the switch fluorescence ratio amounted to 1.02.

As to TACAGATGCC, the switch fluorescence ratio is 1.01.

Take AGCTCTACAC: the switch fluorescence ratio came out at 1.06.

AGTCGGGTGA: the switch fluorescence ratio was 0.981.

Regarding AGGATATCAT, the switch fluorescence ratio was determined as 0.98.

Take CGGTATTAGT: the switch fluorescence ratio came out at 0.982.

On to GAGGGAGAGG, for which the switch fluorescence ratio worked out at 1.02.

GATTAAAATC: the switch fluorescence ratio was 0.976.

As for GGAAATCATG, the switch fluorescence ratio stood at 0.983.

Turning to GTCGAATGAC, the switch fluorescence ratio was determined as 1.

In the case of GCACGTACGC, the switch fluorescence ratio is 1.65.

As for AGTCCTATGT, the switch fluorescence ratio stood at 1.04.

Take GATAGCTGTG: the switch fluorescence ratio is 1.01.

Turning to TTCGCCTTAA, the switch fluorescence ratio amounted to 0.994.

Take GGCAGCACCG: the switch fluorescence ratio worked out at 0.968.

As to GATGGTTTAC, the switch fluorescence ratio came to 1.02.

As to GGAGCGAGGT, the switch fluorescence ratio is 1.02.

Take CGCGTCGCGT: the switch fluorescence ratio came to 0.994.

Regarding CCGCGAAAAG, the switch fluorescence ratio worked out at 1.17.

GCTTATTGAT: the switch fluorescence ratio came out at 0.957.

As to TGGGTTACAC, the switch fluorescence ratio amounted to 1.05.

In the case of CCGGTAGGTC, the switch fluorescence ratio turned out to be 0.987.

As for TGAGCTGGAT, the switch fluorescence ratio came to 1.04.

As for GGGCCAATGT, the switch fluorescence ratio was determined as 1.01.

On to TCTAGTTTAG, for which the switch fluorescence ratio stood at 1.01.

With CGCTGGAGTG, the switch fluorescence ratio worked out at 0.991.

Regarding CGCCTACAGT, the switch fluorescence ratio came to 1.03.

As for CCTGAGCTTG, the switch fluorescence ratio stood at 0.984.

For GACACAATTC, the switch fluorescence ratio came out at 3.05.

Take AGTACATATG: the switch fluorescence ratio turned out to be 1.12.

Regarding TTAGGAAGGA, the switch fluorescence ratio came out at 0.985.

For the sequence CAATTGATAT, the switch fluorescence ratio was determined as 0.992.

In the case of GCTTTCACT, the switch fluorescence ratio worked out at 1.01.

For GAAGGCACAG, the switch fluorescence ratio amounted to 1.04.

Consider TATTATTAGC, for which the switch fluorescence ratio amounted to 0.99.

In the case of GGGGAGTCC, the switch fluorescence ratio was found to be 1.

As to GGGTGCCTCT, the switch fluorescence ratio is 1.1.

Regarding GGGTCCAGGT, the switch fluorescence ratio is 1.11.

On to ACAGACTGCT, for which the switch fluorescence ratio stood at 1.08.

As for AGGAATTTAC, the switch fluorescence ratio was 1.07.

Consider GCCTAATCTC, for which the switch fluorescence ratio worked out at 1.01.

As for TTTGGTTACG, the switch fluorescence ratio was 0.998.

With ATGGCTTTGA, the switch fluorescence ratio was 1.

Take ATTCGTCACG: the switch fluorescence ratio turned out to be 1.02.

Regarding TGGTGTTTA, the switch fluorescence ratio was 0.995.

On to ACGGTACCAG, for which the switch fluorescence ratio was 1.37.

Turning to CTAAGAATAC, the switch fluorescence ratio stood at 1.84.

As for TTTCACAGTG, the switch fluorescence ratio was 1.03.

TGAGATCGAC: the switch fluorescence ratio was found to be 0.966.

With TACATTGATT, the switch fluorescence ratio came to 1.07.

As for TCCTACCGGA, the switch fluorescence ratio came out at 1.11.

TTGGCAATGA: the switch fluorescence ratio was 2.8.

For ATTTGTATCA, the switch fluorescence ratio came to 0.992.

As for TCTAGAGCAT, the switch fluorescence ratio was determined as 1.52.

With CTGAGGTAA, the switch fluorescence ratio was 1.68.

With TAAGTCAAC, the switch fluorescence ratio was 0.979.

Turning to ACCTTTTATA, the switch fluorescence ratio was determined as 1.

Turning to GCGAATACAA, the switch fluorescence ratio was 1.08.

In the case of CTTTCTCCGG, the switch fluorescence ratio amounted to 1.17.

For TCGTCCCGGT, the switch fluorescence ratio was found to be 1.01.

In the case of AGGCGTAGGG, the switch fluorescence ratio is 0.984.

With AATGATATAT, the switch fluorescence ratio is 0.982.

With TTAGTGGCCT, the switch fluorescence ratio is 0.986.

On to AGGGGTCAAA, for which the switch fluorescence ratio turned out to be 0.987.

For the sequence GCGAAGAAAC, the switch fluorescence ratio came to 0.99.

As for CGTCCATTTC, the switch fluorescence ratio is 1.08.

For GAGATATGGC, the switch fluorescence ratio came out at 0.993.

Regarding TTAGATTCGC, the switch fluorescence ratio came out at 1.02.

Turning to CTTTTTGAAT, the switch fluorescence ratio was 1.03.

In the case of CTTCTTATTT, the switch fluorescence ratio was determined as 1.01.

Turning to CATGCGCAAG, the switch fluorescence ratio was 4.38.

For TTTCGGCACG, the switch fluorescence ratio came out at 0.963.

GTCGGGGGA: the switch fluorescence ratio turned out to be 0.913.
